Results as given in a collection of fitness landscapes (doi:10.1016/j.celrep.2020.107928).
Over roughly 81,000 sequences, “one-hybrid fitness for binding NBS DNA” has its median near -0.1; the highest 2% begin near 0.36. The list shows a part of the results.

B1: Caulobacter ParB omega fusion; a variant is named by its letters at X, in order, B8GW30 (parent)
chain: MESVVVGEPGMSEGRRGLGRGLSALLGEVDAAPAQAPGEQLGGSREAPIEILQRNPDQPRRTFREEDLEDLSNSIREKGVLQPILVRPSPDTAGEYQIVAGERAWRAAQRAGLKTVPIMVRELDDLAVLEIGIIENVQRADLNVLEEALSYKVLMEKFERTQENIAQTIGKSXSHVANXMRLLXLPDEVQSYLVSGELTAXHARAIAAAADPVALAKQIIEGGLSVRETEALARKAPNLSAGKSKGGRPPRVKDTDTQALESDLSSVLGLDVSIDHRGSTGTLTITYATLEQLDDLCNRLTRGI

Variants of: B1
Test: one-hybrid fitness for binding NBS DNA (the Noc-binding site; scaled: cognate 1, non-cognate 0); higher = stronger binding
Details: with NBS DNA site
How it was run: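 Bacterial one-hybrid selection in E. coli USO rpoZ- hisB- pyrF- with a HIS3 reporter carrying the site 19 bp from the promoter, screening Caulobacter ParB libraries with four specificity codons randomised (NNS). Cells grew 48 hours at 37°C on M9-minus-histidine plus 0.1 mM IPTG and 5 mM 3-AT. Plasmids before and after selection were Illumina-sequenced, three replicate libraries pooled, and variants under 10 reads dropped. Fitness is the log change in variant-to-wild-type read ratio, rescaled to cognate 1, non-cognate 0.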

| Variant | one-hybrid fitness for binding NBS DNA |
| --- | --- |
| QPAS | ≤ 0.2 |
| SADC | ≤ 0.2 |
| HVLT | ≤ 0.2 |
| EYLC | ≤ 0.2 |
| VMWS | ≤ 0.2 |
| YTIR | ≤ 0.2 |
| RAQD | ≤ 0.2 |
| QMRH | 0.584 |
| RWAC | ≤ 0.2 |
| VHRT | ≤ 0.2 |
| YTFS | ≤ 0.2 |
| QYPP | ≤ 0.2 |
| WMHT | ≤ 0.2 |
| QGRT | ≤ 0.2 |
| SSDY | ≤ 0.2 |
| PGPK | ≤ 0.2 |
| IEAL | ≤ 0.2 |
| LNYF | ≤ 0.2 |
| KRWK | ≤ 0.2 |
| LIIE | ≤ 0.2 |
| SRCF | ≤ 0.2 |
| GCLM | ≤ 0.2 |
| QLFS | ≤ 0.2 |
| VLQW | ≤ 0.2 |

| Variant | one-hybrid fitness for binding NBS DNA |
| --- | --- |
| MDYV | ≤ 0.2 |
| CANG | ≤ 0.2 |
| QRHI | 0.358 |
| LFRV | ≤ 0.2 |
| DKHC | ≤ 0.2 |
| RKLP | ≤ 0.2 |
| DNLW | ≤ 0.2 |
| ITDT | ≤ 0.2 |
| HAID | ≤ 0.2 |
| YYAS | ≤ 0.2 |
| ALGS | ≤ 0.2 |
| NFMS | ≤ 0.2 |
| AVDI | ≤ 0.2 |
| GLDV | ≤ 0.2 |
| ASQM | ≤ 0.2 |
| HITP | ≤ 0.2 |
| MFNR | ≤ 0.2 |
| ISPE | ≤ 0.2 |
| YVHY | ≤ 0.2 |
| MWRC | ≤ 0.2 |
| RDTN | ≤ 0.2 |
| HHDK | ≤ 0.2 |
| NNSC | ≤ 0.2 |
| DKNS | ≤ 0.2 |

| Variant | one-hybrid fitness for binding NBS DNA |
| --- | --- |
| HLQP | ≤ 0.2 |
| SMSW | ≤ 0.2 |
| ITSS | ≤ 0.2 |
| IFPM | ≤ 0.2 |
| GQWC | ≤ 0.2 |
| KANA | ≤ 0.2 |
| LAVK | ≤ 0.2 |
| DSFI | ≤ 0.2 |
| GASV | ≤ 0.2 |
| DELM | ≤ 0.2 |
| FSVV | ≤ 0.2 |
| NDMR | ≤ 0.2 |
| FGIY | ≤ 0.2 |
| ASLN | ≤ 0.2 |
| RFIE | ≤ 0.2 |
| LLSI | ≤ 0.2 |
| IMSC | ≤ 0.2 |
| LQSR | ≤ 0.2 |
| AHMA | ≤ 0.2 |
| QIMM | ≤ 0.2 |
| IMAV | ≤ 0.2 |
| AVPI | ≤ 0.2 |
| HMLC | ≤ 0.2 |
| WIRR | ≤ 0.2 |

| Variant | one-hybrid fitness for binding NBS DNA |
| --- | --- |
| TLIF | ≤ 0.2 |
| FWGR | 0.22 |
| FNQL | ≤ 0.2 |
| RGDV | ≤ 0.2 |
| AIRS | ≤ 0.2 |
| HYDV | ≤ 0.2 |
| PNWG | ≤ 0.2 |
| YVQE | ≤ 0.2 |
| TGCE | ≤ 0.2 |
| EQDS | ≤ 0.2 |
| KHQS | ≤ 0.2 |
| PQTY | ≤ 0.2 |
| RHPH | ≤ 0.2 |
| RHQQ | ≤ 0.2 |
| VSAL | ≤ 0.2 |
| ITLC | ≤ 0.2 |
| FRMC | ≤ 0.2 |
| SKKY | ≤ 0.2 |
| RFMT | ≤ 0.2 |
| HDLV | ≤ 0.2 |
| PEHS | ≤ 0.2 |
| SAWR | ≤ 0.2 |
| YMMV | ≤ 0.2 |
| IKMM | ≤ 0.2 |

| Variant | one-hybrid fitness for binding NBS DNA |
| --- | --- |
| IARQ | ≤ 0.2 |
| TIMD | ≤ 0.2 |
| RKFG | ≤ 0.2 |
| INEL | ≤ 0.2 |
| LCSI | ≤ 0.2 |
| YVKC | ≤ 0.2 |
| CCNC | ≤ 0.2 |
| RQLV | ≤ 0.2 |
| SYDS | ≤ 0.2 |
| RAWV | ≤ 0.2 |
| RQLK | ≤ 0.2 |
| SFLI | ≤ 0.2 |
| MYGF | ≤ 0.2 |
| RYYF | ≤ 0.2 |
| VPHD | ≤ 0.2 |
| TYHH | ≤ 0.2 |
| SWVD | ≤ 0.2 |
| PFSE | ≤ 0.2 |
| AFRT | ≤ 0.2 |
| QMSC | ≤ 0.2 |
| KRQH | 0.221 |
| PITV | ≤ 0.2 |
| LSPL | ≤ 0.2 |
| RCFG | ≤ 0.2 |

| Variant | one-hybrid fitness for binding NBS DNA |
| --- | --- |
| VFCL | ≤ 0.2 |
| VART | ≤ 0.2 |
| EHPL | ≤ 0.2 |
| PLDK | ≤ 0.2 |
| FAGR | ≤ 0.2 |
| DGHY | ≤ 0.2 |
| YPPL | ≤ 0.2 |
| TRCK | ≤ 0.2 |
| TLQT | ≤ 0.2 |
| WLGW | ≤ 0.2 |
| ISSW | ≤ 0.2 |
| TACV | ≤ 0.2 |
| KMAA | ≤ 0.2 |
| ATKY | ≤ 0.2 |
| RLLD | ≤ 0.2 |
| PCPD | ≤ 0.2 |
| WHSR | ≤ 0.2 |
| QMVG | ≤ 0.2 |
| TWIT | ≤ 0.2 |
| PWLT | ≤ 0.2 |
| YHRC | ≤ 0.2 |
| RHRH | 0.32 |
| SMWR | ≤ 0.2 |
| HVRW | ≤ 0.2 |

| Variant | one-hybrid fitness for binding NBS DNA |
| --- | --- |
| TALS | ≤ 0.2 |
| ARIE | ≤ 0.2 |
| PREV | ≤ 0.2 |
| ADVD | ≤ 0.2 |
| SPMC | ≤ 0.2 |
| HANT | ≤ 0.2 |
| LYSW | ≤ 0.2 |
| RQNY | ≤ 0.2 |
| GNIW | ≤ 0.2 |
| VTPR | ≤ 0.2 |
| SVNV | ≤ 0.2 |
| IWNG | ≤ 0.2 |
| GLSF | ≤ 0.2 |
| SSAE | ≤ 0.2 |
| KFSC | ≤ 0.2 |
| VYRY | ≤ 0.2 |
| GVKR | ≤ 0.2 |
| FMWR | ≤ 0.2 |
| MIES | ≤ 0.2 |
| VKDR | ≤ 0.2 |
| LYPA | ≤ 0.2 |
| SGRP | ≤ 0.2 |
| NTKI | ≤ 0.2 |
| PYQT | ≤ 0.2 |

| Variant | one-hybrid fitness for binding NBS DNA |
| --- | --- |
| ANFK | ≤ 0.2 |
| VAAK | ≤ 0.2 |
| FRHA | ≤ 0.2 |
| ALLN | ≤ 0.2 |
| LAAV | ≤ 0.2 |
| HPQQ | ≤ 0.2 |
| NTSF | ≤ 0.2 |
| VCDR | ≤ 0.2 |
| IDLS | ≤ 0.2 |
| PAEA | ≤ 0.2 |
| SRMD | ≤ 0.2 |
| DHNQ | ≤ 0.2 |
| RSCQ | ≤ 0.2 |
| TWLY | ≤ 0.2 |
| FLPM | ≤ 0.2 |
| GLKK | ≤ 0.2 |
| QTME | ≤ 0.2 |
| RLDC | ≤ 0.2 |
| IQRL | ≤ 0.2 |
| RSFG | ≤ 0.2 |
| KWRA | ≤ 0.2 |
| CLDY | ≤ 0.2 |
| KFRN | ≤ 0.2 |
| ILTG | ≤ 0.2 |

| Variant | one-hybrid fitness for binding NBS DNA |
| --- | --- |
| IDRP | ≤ 0.2 |
| AAFI | ≤ 0.2 |
| CRTT | ≤ 0.2 |
| GVRL | ≤ 0.2 |
| DWST | ≤ 0.2 |
| WAGG | ≤ 0.2 |
| KRSM | ≤ 0.2 |
| PWNG | ≤ 0.2 |
| ASPY | ≤ 0.2 |
| HDRW | ≤ 0.2 |
| EAQQ | ≤ 0.2 |
| FTQV | ≤ 0.2 |
| YDLG | ≤ 0.2 |
| HLHG | ≤ 0.2 |
| AIFT | ≤ 0.2 |
| PLPN | ≤ 0.2 |
| TGCM | ≤ 0.2 |
| LQTK | ≤ 0.2 |
| KGFI | ≤ 0.2 |
| NSSN | ≤ 0.2 |
| ATCC | ≤ 0.2 |
| QNIE | ≤ 0.2 |
| SERG | ≤ 0.2 |
| SETT | ≤ 0.2 |

| Variant | one-hybrid fitness for binding NBS DNA |
| --- | --- |
| FTAQ | ≤ 0.2 |
| TMTV | ≤ 0.2 |
| VRSE | ≤ 0.2 |
| PCYG | ≤ 0.2 |
| TMTP | ≤ 0.2 |
| YGFV | ≤ 0.2 |
| PEKN | ≤ 0.2 |
| SNPK | ≤ 0.2 |
| CEAV | ≤ 0.2 |
| KGRW | ≤ 0.2 |
| NHNC | ≤ 0.2 |
| THRH | ≤ 0.2 |
| TPGT | ≤ 0.2 |
| FVPG | ≤ 0.2 |
| DWDT | ≤ 0.2 |
| YAGV | ≤ 0.2 |
| KPRL | ≤ 0.2 |
| DGVS | ≤ 0.2 |
| PWDT | ≤ 0.2 |
| RQAT | 0.385 |
| VRDY | ≤ 0.2 |
| CHRF | ≤ 0.2 |
| RWVI | ≤ 0.2 |
| QISE | ≤ 0.2 |

| Variant | one-hybrid fitness for binding NBS DNA |
| --- | --- |
| RPMS | ≤ 0.2 |
| HLLS | ≤ 0.2 |
| WTSF | ≤ 0.2 |
| VELW | ≤ 0.2 |
| HNNT | ≤ 0.2 |
| SADA | ≤ 0.2 |
| HLTT | ≤ 0.2 |
| MIRY | ≤ 0.2 |
| APEM | ≤ 0.2 |
| PPCV | ≤ 0.2 |
| LCPS | ≤ 0.2 |
| ACPK | ≤ 0.2 |
| SASI | ≤ 0.2 |
| LSPG | ≤ 0.2 |
| NSHP | ≤ 0.2 |
| QHIY | ≤ 0.2 |
| GAYR | ≤ 0.2 |
| MYTL | ≤ 0.2 |
| TMSQ | ≤ 0.2 |
| PLHG | ≤ 0.2 |
| EKDG | ≤ 0.2 |
| CGPC | ≤ 0.2 |
| CKSR | ≤ 0.2 |
| VCSC | ≤ 0.2 |

| Variant | one-hybrid fitness for binding NBS DNA |
| --- | --- |
| QGWS | ≤ 0.2 |
| MTNL | ≤ 0.2 |
| REQP | ≤ 0.2 |
| MAFM | ≤ 0.2 |
| RMPM | ≤ 0.2 |
| SHCR | ≤ 0.2 |
| YCHT | ≤ 0.2 |
| EGYR | ≤ 0.2 |
| CDNT | ≤ 0.2 |
| VKDT | ≤ 0.2 |
| HVIS | ≤ 0.2 |
| AVAW | ≤ 0.2 |
| PCIC | ≤ 0.2 |
| SLTI | ≤ 0.2 |
| RVEL | ≤ 0.2 |
| LISK | ≤ 0.2 |
| VNRV | ≤ 0.2 |
| TYMC | ≤ 0.2 |
| NGPC | ≤ 0.2 |
| PALC | ≤ 0.2 |
| QQMH | 0.222 |
| IEST | ≤ 0.2 |
| YHEG | ≤ 0.2 |
| NQCS | ≤ 0.2 |

| Variant | one-hybrid fitness for binding NBS DNA |
| --- | --- |
| AGMR | ≤ 0.2 |
| KLPI | ≤ 0.2 |
| WRWS | ≤ 0.2 |
| MASV | ≤ 0.2 |
| QEME | ≤ 0.2 |
| LAPK | ≤ 0.2 |
| GTAC | ≤ 0.2 |
| HYMS | ≤ 0.2 |
| YKDV | ≤ 0.2 |
| STTV | ≤ 0.2 |
| TINM | ≤ 0.2 |
| SRAG | ≤ 0.2 |
| AKPL | ≤ 0.2 |
| KINL | ≤ 0.2 |
| LESF | ≤ 0.2 |
| YSIL | ≤ 0.2 |
| DEMT | ≤ 0.2 |
| PYDC | ≤ 0.2 |
